Reference: paper PMC4336329 (PLoS ONE, 2015)
In all, about 310,000 compounds went through this assay and about 2,200 (0.71%) showed an effect of 50% or more. The effect is printed as a negative number. This is one part of the list.

biological target: human ether-à-go-go-related gene (hERG) potassium channel (human, UniProt Q12809); test: primary screen, population patch clamp on CHO cells stably expressing hERG
Sequence (Q12809 whole entry, looked up): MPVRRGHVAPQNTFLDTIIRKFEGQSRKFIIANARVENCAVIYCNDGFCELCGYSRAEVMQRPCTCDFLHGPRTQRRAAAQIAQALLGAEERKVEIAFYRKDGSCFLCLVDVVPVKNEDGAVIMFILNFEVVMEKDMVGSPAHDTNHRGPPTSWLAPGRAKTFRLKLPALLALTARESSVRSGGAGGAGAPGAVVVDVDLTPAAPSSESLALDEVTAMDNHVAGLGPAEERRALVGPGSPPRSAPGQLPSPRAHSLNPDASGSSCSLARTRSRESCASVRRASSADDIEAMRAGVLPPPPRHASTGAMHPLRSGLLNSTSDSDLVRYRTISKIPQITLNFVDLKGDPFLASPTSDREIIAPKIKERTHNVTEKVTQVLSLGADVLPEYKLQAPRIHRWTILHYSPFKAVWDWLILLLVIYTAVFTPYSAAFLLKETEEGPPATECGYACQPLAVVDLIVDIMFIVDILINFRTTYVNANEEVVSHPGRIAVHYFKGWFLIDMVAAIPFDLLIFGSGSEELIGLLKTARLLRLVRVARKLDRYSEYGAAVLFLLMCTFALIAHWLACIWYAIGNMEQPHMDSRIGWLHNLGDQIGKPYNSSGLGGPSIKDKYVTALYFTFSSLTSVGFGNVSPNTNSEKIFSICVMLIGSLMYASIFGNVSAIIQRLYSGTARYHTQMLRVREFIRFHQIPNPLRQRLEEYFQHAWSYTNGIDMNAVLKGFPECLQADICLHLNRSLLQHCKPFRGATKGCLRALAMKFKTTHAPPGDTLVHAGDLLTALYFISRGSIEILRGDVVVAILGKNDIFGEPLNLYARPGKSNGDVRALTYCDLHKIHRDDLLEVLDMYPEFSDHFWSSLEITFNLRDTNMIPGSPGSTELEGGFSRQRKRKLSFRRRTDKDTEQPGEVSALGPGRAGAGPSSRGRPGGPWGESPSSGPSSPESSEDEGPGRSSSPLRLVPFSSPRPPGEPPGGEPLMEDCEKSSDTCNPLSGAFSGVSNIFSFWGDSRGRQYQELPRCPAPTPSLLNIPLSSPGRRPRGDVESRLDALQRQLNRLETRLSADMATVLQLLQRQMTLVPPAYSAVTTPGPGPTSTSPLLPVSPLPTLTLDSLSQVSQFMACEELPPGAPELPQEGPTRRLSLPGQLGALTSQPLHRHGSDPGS

| Compound | hERG current change (%, negative = inhibition) at 1uM [%] |
| --- | --- |
| O=C(NCCN1CCOCC1)c1cc([N+](=O)[O-])ccc1Cl | 9.99 |
| CC(C)C(NC(=O)c1ccccc1F)C(=O)Nc1nccs1 (centres unmarked) | 17.5 |
| CCCCNS(=O)(=O)c1ccc(NC(=O)C2CCCO2)cc1 (centres unmarked) | -2.01 |
| COc1cc(NC(=S)Nc2cccc(Cl)c2Cl)c(OC)cc1Cl | 0.369 |
| S=c1[nH]ncn1/N=C/c1cccs1 | 12.8 |
| CN1/C(=C/c2cccc[n+]2CCO)Sc2ccccc21.[I-] | 6.72 |
| Clc1ncc(CN2CCN(c3ccccc3)CC2)s1 | 2.96 |
| Cc1ccc2[nH]c(=O)c(COC(=O)C3CCCCC3)cc2c1 | 15.5 |
| CN1CCN(C(=O)CN2C(=O)COc3ccc(S(=O)(=O)N4CCOCC4)cc32)CC1 | 14.6 |
| CCCCn1c(N)c(N(CC(C)C)C(=O)CN2C(=O)c3ccccc3C2=O)c(=O)[nH]c1=O | -2.86 |
| Cc1ccc(C(O)P(=O)(Oc2ccccc2)Oc2ccccc2)cc1 (centres unmarked) | 4.04 |
| CCc1nnc(NS(=O)(=O)c2ccc(NC(=S)NC(=O)c3ccccc3)cc2)s1 | 17 |
| CCN(Cc1ccccc1)S(=O)(=O)c1ccc(C(=O)N(CCCN(C)C)c2nc3cc4c(cc3s2)OCCO4)cc1.Cl | 2.09 |
| COc1ccc(NC(=O)C2CC(=O)N(Cc3ccc(C)cc3)C2)cc1S(=O)(=O)N1CCCCC1 (centres unmarked) | 8.95 |
| O=C(NC1CC2CCC(C1)N2Cc1ccccc1)c1cccc(F)c1 (centres unmarked) | -17.5 |
| Cc1ccc(CSCCNC(=O)c2ccccc2)cc1 | 6.03 |
| O=C(Nc1ccc2c(c1)OCO2)NC1(C(F)(F)F)Oc2ccccc2O1 | 0.995 |
| CCCCn1c2ccccc2c2nnc(SCC(=O)NC3=NN=C(c4ccccc4)CS3)nc21 | 11 |
| Cc1cc(OCC(=O)N(C)c2ccccc2)cc2c1C(=O)CC(C)(C)O2 | 13.6 |
| Cc1ccsc1/C=N/n1c(-c2ccccc2)n[nH]c1=S | 7 |
| S=c1[nH]nc(-c2ccc(Cl)cc2)n1-c1ccc2c(c1)OCCO2 | 7.4 |
| CCOC(=O)Cc1csc(NC(=O)Cc2ccc(Br)cc2)n1 | 6.73 |
| O=C(CN(C(=O)CCC(=O)Nc1nccs1)c1ccc(F)cc1)NCc1ccco1 | 11.7 |

| Compound | hERG current change (%, negative = inhibition) at 1uM [%] |
| --- | --- |
| CCOc1ccccc1Nc1ccc(C(=O)O)cc1[N+](=O)[O-] | 6.51 |
| O=C(NC1CCN(S(=O)(=O)c2cccc(F)c2)CC1)c1ccc(F)cc1 | 12.3 |
| O=C(Cn1cncn1)NCCCc1ccccc1 | 8.5 |
| Cc1cnc(=O)[nH]c1SCc1ccc(C(F)(F)F)cc1 | 23 |
| O=C(/C=C/c1ccc(Br)cc1)NC(=O)c1ccccc1O | 15.9 |
| C=CCOc1nc2c(c(=O)n(C)c(=O)n2C)n1Cc1ccc(Cl)cc1 | 6.43 |
| CCCCOC(=O)c1ccc(NC(=O)CSc2nnnn2C)cc1 | 15.4 |
| COc1ccccc1/C=C1\SC(=S)N(CC(=O)NC2CCS(=O)(=O)C2)C1=O (centres unmarked) | -8.65 |
| CC(=O)Nc1ccc(NC(=O)C23CC4CC(C2)CC(n2cnc(Br)n2)(C4)C3)cc1 | -33.1 |
| COC(=O)c1cc(C(=O)OCC(=O)NC2CCS(=O)(=O)C2)cc([N+](=O)[O-])c1 (centres unmarked) | 1.14 |
| Cc1cc(NC(=O)CSc2nc(C(C)C)nc3c2c(=O)n(C)c(=O)n3C)no1 | 13.5 |
| O=C(Nc1cnc2ccccc2c1)N1CCCCC1 | 8.03 |
| COc1cccc(/C=C/c2ccc3ccccc3n2)c1OC(C)=O | 17.8 |
| CCOC(=O)N1CCC(NC(=O)C2CCCN(Cc3nc(-c4ccc(CC)cc4)oc3C)C2)CC1 (centres unmarked) | -39.3 |
| CN(C)S(=O)(=O)c1cccc(C(=O)NCC(=O)NC2CCN(Cc3ccccc3)CC2)c1 | 9.62 |
| Cc1ccc2c(c1)[nH]c1c(=O)n(CCCN3CCOCC3)cnc12 | -5.55 |
| CCCCCC(=O)NC(=S)NNC(=O)CC | 10.6 |
| CCCN1CCN(C(=O)c2c(Cl)cnn2C)CC1 | 3.15 |
| O=C(O)c1ccc(NC(=O)c2ccc(COc3ccccc3)o2)cc1 | 7.72 |
| COc1cc(/C=C2/SC(=S)N(C)C2=O)ccc1OC(=O)c1ccco1 | 4.16 |
| CCCCC1=CC2=CC(=O)C(C)(OC(=O)CC)C(=O)C2=CN1Cc1ccc(OC)cc1 (centres unmarked) | -4.02 |
| CC1(C)SC(=Nc2ccccc2)N(S(=O)(=O)c2ccccc2)C1=O | 2.54 |
| CNC(=O)c1[nH]cnc1C(=O)N[C@@H](C)C(=O)OCc1ccccc1 | 7.72 |

| Compound | hERG current change (%, negative = inhibition) at 1uM [%] |
| --- | --- |
| COc1cc2c(cc1OC)C(c1ccc(N(C)C)cc1)NCC2.Cl (centres unmarked) | 10.3 |
| Cc1ccc(S(=O)(=O)Nc2ccc3c(c2)OCCO3)c(C)c1NS(C)(=O)=O | 12.1 |
| COc1ccc(NS(=O)(=O)c2cccc(C(=O)NC3CCC(O)CC3)c2)cc1 (centres unmarked) | 6.55 |
| Cc1cc(NC(=O)CN2CCN(c3ccccc3O)CC2)no1 | -9.32 |
| COc1cccc(C(=O)N/N=C(/CCC(=O)O)c2ccccc2)c1 | 6.54 |
| Cc1ccc(C)n1CCN1CCN(C(=O)CSc2nc3ccccc3nc2N2CCOCC2)CC1 | -11.1 |
| Cc1ccc(NC(=S)N(CCN(C)C)C(C)c2ccco2)c(C)c1 (centres unmarked) | -1.27 |
| Cc1ccc(NC(=O)CN2C(=O)S/C(=C/c3ccc(-c4cc(C(=O)O)ccc4C)o3)C2=O)cc1C | 7.92 |
| O=C(NN1C(=O)C2C3c4ccccc4C(c4ccccc43)[C@@H]2C1=O)c1ccccc1 (some centres unmarked) | 10.8 |
| COc1cc(NC(=O)Cn2cnc(S(=O)(=O)N3CCc4ccccc43)c2)cc(OC)c1OC | 10 |
| CN(C)/C=N/c1ncc(C(=O)c2ccccc2)s1 | 13.5 |
| Cc1cccc(C(=O)N(Cc2ccc(C)o2)C2CCS(=O)(=O)C2)c1 (centres unmarked) | -17.2 |
| O=C(CSCc1ccc([N+](=O)[O-])cc1)N/N=C/c1ccncc1 | -19.5 |
| O=C(/C=C1\NCC2c3ccccc3CCN2C1=O)c1ccccc1 (centres unmarked) | 5.83 |
| N#Cc1ccc(C(=O)OCC(=O)Nc2cccc(S(=O)(=O)N3CCCCC3)c2)cc1 | -4.16 |
| Cc1ccc(CN=C(N)Nc2nc(C)cc(C)n2)cc1.Cl | -19.5 |
| Cc1cc(C)c(NC(=O)CN(C)C(=O)CNC(=O)c2cccs2)c(C)c1 | 9.26 |
| Cc1ccc2oc(-c3ccc(NC(=O)c4cccnc4)cc3)nc2c1 | 6.73 |
| CCOC(=O)C1=C(C)N=C2SC(C)C(=O)N2C1c1ccc(OC(C)=O)c(OC)c1 (centres unmarked) | 11.8 |
| Cc1cc(C(=O)C(C)OC(=O)c2ccc(NC(=O)CC#N)cc2)c(C)n1-c1ccccc1 (centres unmarked) | 14.7 |
| Cc1ccc(OCC(=O)N2CCC(N3CCCCCC3)CC2)cc1 | -5.71 |
| Cc1c([N+](=O)[O-])cc(C(=O)Oc2cccc(C(=S)N3CCOCC3)c2)cc1[N+](=O)[O-] | 2.85 |
| CCN(CC)CCn1c(NCc2ccc(OC)cc2)nc2ccccc21 | -25.4 |

| Compound | hERG current change (%, negative = inhibition) at 1uM [%] |
| --- | --- |
| COc1ccc(NC(=O)Cn2c(C(C)C)nc(C)cc2=O)cc1Cl | 9.99 |
| CCOc1nc(N2CCOCC2)nc(C)c1[N+](=O)[O-] | -0.713 |
| CCOC(=O)N1CCN(C(=O)c2ccc3ccccc3c2)CC1 | 16.1 |
| Cc1cnc(NS(=O)(=O)c2ccccc2)c(Br)c1 | 9.81 |
| C=CCN(CC=C)C(=S)NC(=O)/C=C/c1ccc(C)cc1 | 10.5 |
| COc1cc(C(NC(C)=O)NC(C)=O)ccc1OCc1ccccc1 | 7.89 |
| CC1CCC(NC(=O)CCC(=O)N2CC(C)Oc3ccccc32)CC1 (centres unmarked) | 6.58 |
| O=C1CC(c2ccccc2)CC(=O)C1CS(=O)(=O)c1ccccc1 (centres unmarked) | 18.9 |
| O=c1c(Cc2c(F)cccc2Cl)c(O)ccn1C1CCCCCC1 | 11 |
| O=C(O)c1cnccn1 | 10.6 |
| CCOC(=O)C1=C(N)N2C(=O)C(C)SC2=C(C(=O)OC)C1c1ccccc1OC (centres unmarked) | 13.6 |
| COc1ccc(-c2c(C)nn3c(Cl)c(C)c(C)nc23)cc1 | 15.8 |
| CC(NC(=O)CSc1nnc(-c2cccnc2)n1N)c1ccccc1 (centres unmarked) | 4.59 |
| CC(=O)c1ccc(S(=O)(=O)Nc2ccc(C(=O)NCCCn3ccnc3)cc2)cc1 | 0.706 |
| CCOC(=O)CC(=O)CSc1ccc2nnc(-c3cccc(F)c3)n2n1 | -35 |
| CN(C)CCN(C(=O)c1cc(Cl)sc1Cl)c1nc2ccc(F)cc2s1.Cl | -16.6 |
| Cc1ccc(-n2c(N)c(Br)c(=O)[nH]c2=O)cc1C | 7.07 |
| Cc1cccc(Sc2ccc([N+](=O)[O-])cn2)c1 | 6.43 |
| COc1ccc(NC(=O)C(NC(C)=O)C(=O)Nc2ccc(F)cc2)cc1 (centres unmarked) | 14.3 |
| COc1cccc(NC(=O)CSc2ccc3nnc(-c4cccnc4)n3n2)c1 | 1.14 |
